Out of some 410,000 compounds screened, about 5,000 (1.2%) were called active. This list was built around the results that the source calls inconclusive (neither active nor inactive); the mix of calls is not that of the screen. Calls come from the whole dose curve; as a rule, active = well fitted inhibition curve with a large enough effect; inconclusive = small, poorly fitted or top-dose-only effect; inactive = no such curve, though single readings can be large or run the other way. A potency beside an inconclusive call is a rough fit, not a confirmed value.
assay: qHTS for Inhibitors of TGF-b; details: HepG2 CAGA-GFP TGF-b/SMAD3 reporter, GFP fluorescence, 18 h, TGF-beta stimulated, 500 pg/mL final; series mostly up to 46.1 µM; activity, negative = inhibition: at the top concentration; note: nearly all actives have a fitted effect of over 65% in size
Method in brief: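 HEPG2 CAGA-GFP reporter cells (1000/well, DMEM with 1% FBS) received compounds, then recombinant TGF-beta at 500 pg/mL final for 18 hours at 37 degrees C. Per-cell GFP summed per well was normalised to unstimulated and stimulated DMSO controls before curve fitting.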
% is set by controls: 0 for no effect and ±100 for the full control effect; potency is the fitted concentration of half-maximal effect; tags give direction and shape of the fitted curve.

Row | Structure (SMILES) | activity, negative = inhibition | Potency
1 | Cc1oc2ncn(CC(C)C)c(=O)c2c1C(=O)NCc1cccc(Cl)c1 | inactive: -2.16% | –
2 | CSc1nc2ccc(NS(=O)(=O)c3ccc(Cl)s3)cc2s1 | – | inconclusive: 35.5 µM [inhibitor, single point]
3 | O=C(NC1CCSc2ccccc21)c1cccc(Br)c1 (configuration not stated) | inactive: 5.33% | –
4 | O=C(CN1C(=O)COc2ccc(S(=O)(=O)N3CCOCC3)cc21)NCc1ccc(Cl)cc1 | – | inconclusive: 35.5 µM [inhibitor, single point]
5 | CCN(C(=O)CSc1nnc(-c2cc3occc3n2C)n1-c1ccccc1C)c1ccccc1 | inactive: 9.94% | –
6 | CCN(CC)c1ccc(-c2sc(Nc3ccccc3)n[n+]2-c2ccc(F)cc2)cc1 | – | inconclusive: 22.4 µM [inhibitor, single point]
7 | CS(=O)(=O)c1ncc(Cl)c(C(=O)N2CCN(c3cccc(Cl)c3)CC2)n1 | – | active: 2.82 µM
8 | O=C1CC(c2ccccc2)CC(O)=C1C=Nc1ccccc1Cl (configuration not stated) | – | inconclusive: 35.5 µM [inhibitor, single point]
9 | O=C(Nc1nc(-c2ccccc2)cs1)C1CCCN(S(=O)(=O)c2ccccc2)C1 (configuration not stated) | – | inconclusive: 7.94 µM [inhibitor, partial curve]
10 | CCc1ccc(OCC(=O)NC(NC(=S)Nc2ccc(C)cc2C)C(Cl)(Cl)Cl)cc1 (configuration not stated) | – | active: 11.2 µM
11 | CCCCCC1C(=O)N2C=C(c3ccccc3)c3ccccc3N2C1=O (configuration not stated) | – | inconclusive: 15.8 µM [inhibitor, single point]
12 | Cc1cccc(NC(=S)NC2CC3CCCC(C2)N3CC(C)C)c1 (configuration not stated) | – | inconclusive: 0.708 µM [inhibitor, partial curve, poor fit]
13 | CC(C)COc1ccc(C(=O)N/C(=C\c2cccc([N+](=O)[O-])c2)C(=O)OC(C)C)cc1 | – | inconclusive: 35.5 µM [inhibitor, single point]
14 | O=C(Cc1ccc(-c2ccccc2)cc1)NCCS(=O)(=O)N1CCN(c2cccc(Cl)c2)CC1 | inactive: 8.8% | –
15 | Cc1c(C(=O)NCc2ccc(F)cc2)sc(=O)n1Cc1ccc(Cl)c(Cl)c1 | – | inconclusive: 11.2 µM [inhibitor, single point]
16 | CCCc1oc2ccc(NS(=O)(=O)c3ccc(OCC)cc3)cc2c1C(=O)OCC | – | inconclusive: 22.4 µM [inhibitor, partial curve, poor fit]
17 | CNc1nc(SCc2ccccc2)nc(N2CCOCC2)n1 | – | inconclusive: 35.5 µM [inhibitor, single point]
18 | S=c1[nH]nc(Cc2sc(-c3ccccc3)nc2-c2ccccc2)o1 | – | inconclusive: 35.5 µM [inhibitor, single point]
19 | COc1cccc(-c2cc(=O)c3cc(NC(=O)c4ccc(N(C)C)cc4)ccc3[nH]2)c1 | – | inconclusive: 7.94 µM [inhibitor, partial curve, poor fit]
20 | COC(=O)CC(=O)CSc1nc2cc(C(=O)NC(C)C)ccc2c(=O)n1CCc1ccccc1 | inactive: -25.7% | –
21 | Cc1ccc(C(=O)OC2=C(C(=O)c3ccccc3)N(C)S(=O)(=O)c3ccccc32)cc1 | – | inconclusive: 14.1 µM [inhibitor, single point]
22 | CCOC(=O)c1ccc(-c2ccc(/C=N/NC(=O)c3cncc(Br)c3)o2)cc1 | inactive: 1.18% | –
23 | Cc1nn(CC(=O)N2c3ccccc3NC(=O)C2(C)C)c(C)c1[N+](=O)[O-] | – | inconclusive: 12.6 µM [inhibitor, partial curve, poor fit]

Row | Structure (SMILES) | activity, negative = inhibition | Potency
24 | Cc1cccc(NC(=O)c2cccnc2)c1 | inactive: -8.68% | –
25 | CC(=O)Nc1ccccc1Nc1cc(C#N)c(C#N)cc1[N+](=O)[O-] | – | inconclusive: 14.1 µM [inhibitor, single point]
26 | CCc1nc(SCC(=O)NCc2ccc(F)cc2)c2c(=O)n(C)c(=O)n(C)c2n1 | inactive: 19.2% | –
27 | Cc1ccc([C@@H]2CC=C(C(=O)O)[C@H](c3cccc(Cl)c3)N2S(=O)(=O)c2ccccc2C)cc1 | – | inconclusive: 12.6 µM [inhibitor, partial curve]
28 | Cc1ccc(-n2nc3c(N4CCC(C(=O)NCCc5ccco5)CC4)nnc(C)c3c2C)cc1 | – | inconclusive: 14.1 µM [inhibitor, single point]
29 | CCSc1nnc(-c2c[nH]c3ccccc23)o1 | inactive: 6.88% | –
30 | O=C1C(C=Nc2ccccc2)=C(O)c2ccccc21 | inactive: 4.8% | –
31 | Cc1cccc(-c2nc(SCCCOc3cc(C)c(Cl)c(C)c3)n3[nH]c(=O)cc3n2)c1 | – | inconclusive: 25.1 µM [inhibitor, single point]
32 | COc1ccc(Nc2ncnc3c2cnn3-c2cc(Cl)ccc2C)cc1OC | – | inconclusive: 0.631 µM [inhibitor, full curve, poor fit]
33 | N#Cc1ccc(OCC(=O)OCC(=O)N2CCc3ccccc32)cc1 | inactive: 2.67% | –
34 | COc1ccc(C2C3=C(COC3=O)Oc3cc4c(cc32)OCO4)cc1OC (configuration not stated) | – | inactive
35 | Cc1ccccc1CSc1ncc(Cl)c(C(=O)NCc2ccccc2)n1 | inactive: -8.69% | –
36 | CCN(CC)C(=O)Nc1cnc2ccccc2c1 | – | inconclusive: 2.82 µM [inhibitor, partial curve, poor fit]
37 | CCOC(=O)c1ccc(N2C(=O)c3[nH]nc(-c4ccc(C)cc4)c3C2c2ccc(O)cc2)cc1 (configuration not stated) | – | inconclusive: 3.55 µM [inhibitor, partial curve, poor fit]
38 | CCC(=O)N1CCc2cc(Br)cc(S(=O)(=O)CCC(=O)Nc3ccc(CC)cc3)c21 | – | inconclusive: 6.31 µM [inhibitor, single point]
39 | CCc1cccc2c(C(O)c3c[nH]c4ccccc34)c[nH]c12 (configuration not stated) | – | inconclusive: 35.5 µM [inhibitor, single point]
40 | O=C(NC(=S)Nc1ccccc1Br)C1CC1 | – | inconclusive: 7.94 µM [inhibitor, partial curve, poor fit]
41 | COc1cc(CNc2ncc(-c3ccc(Br)cc3)n2C)cc(OC)c1O | – | inconclusive: 8.91 µM [inhibitor, partial curve, poor fit]
42 | O=C1C=C(Nc2ccccc2C(=O)O)c2ccccc2C1=O | – | inconclusive: 17.8 µM [inhibitor, single point]
43 | CCOc1ccc(Nc2nc(N)c(C(=O)c3ccccc3Cl)s2)cc1 | – | active: 3.55 µM
44 | Nc1ccc(N2N=C(N3CCCC3)CC2=O)cc1 | – | inconclusive: 7.94 µM [inhibitor, partial curve, poor fit]
45 | O=Cc1cccc(OCc2cccc3ccccc23)c1 | inactive: -0.551% | –
46 | Fc1ccc(Nc2nc(SCc3cccc(F)c3)nc3ccccc23)cc1 | – | inconclusive: 31.6 µM [inhibitor, partial curve, poor fit]

Row | Structure (SMILES) | activity, negative = inhibition | Potency
47 | Cc1ccc(S(=O)(=O)N(C)C)cc1NC(=O)C(C)OC(=O)CC1CC2CCC1C2 (configuration not stated) | – | inconclusive: 20 µM [inhibitor, partial curve]
48 | O=c1cc(O)n(-c2ccccc2)c(=S)[nH]1 | – | inconclusive: 22.4 µM [inhibitor, single point]
49 | CCOC(=O)c1nnn(CC(=O)NC(=O)Nc2ccccc2F)c1C(=O)OCC | – | inconclusive: 20 µM [inhibitor, single point]
50 | CN(C)c1ccc(/C=N/NC(=O)CNC(=O)/C=C/c2ccco2)cc1 | – | inconclusive: 2.51 µM [inhibitor, partial curve]
51 | COCOCCn1cc(CN2CCS(=O)(=O)N(Cc3ccc(-c4ccc(F)cc4)cc3)C(CC(C)C)C2=O)nn1 (configuration not stated) | – | inconclusive: 35.5 µM [inhibitor, single point]
52 | COc1ccc(C(=O)OCC(=O)NC2CCCCCC2)cc1OC | inactive: -2.31% | –
53 | COc1ncnc2c1ncn2CCCNC1CCN(Cc2ccccc2)CC1 | inactive: 6.39% | –
54 | CC(OC(=O)c1ccc(S(=O)(=O)NCc2ccco2)cc1)C(=O)Nc1ncc(Cl)cc1Cl (configuration not stated) | – | inconclusive: 35.5 µM [inhibitor, single point]
55 | CC(=O)N/C(=N/c1nc(C)cc(C)n1)Nc1ccc(C)cc1C | – | inconclusive: 2.82 µM [inhibitor, single point]
56 | CCn1nc(C)c(CNC(=O)c2cc(COc3ccc(F)cc3Cl)on2)c1C | – | inconclusive: 8.91 µM [inhibitor, partial curve, poor fit]
57 | C[C@@H]1[C@H]2[C@@H](O[C@@H]3O[C@H](CO)[C@@H](O)[C@H](O)[C@H]3O)OC=C(C(=O)O)[C@H]2C[C@@H]1O | – | inconclusive: 35.5 µM [inhibitor, single point]
58 | Cc1cc2c(cc1C)-c1c(ssc1=Nc1ccc(S(N)(=O)=O)cc1)C(C)(C)N2 | – | inconclusive: 20 µM [inhibitor, partial curve, poor fit]
59 | CC(C)n1cnc2c(NCc3ccccc3)nc(NCc3ccccc3)nc21 | – | inconclusive: 15.8 µM [inhibitor, single point]
60 | COCCCNc1nc2c(c(=O)n(Cc3ccccc3)c(=O)n2C)n1C | inactive: -16.7% | –
61 | O=C(CNC(=O)c1ccccc1)OCC(=O)c1ccccc1 | inactive: 4.65% | –
62 | O=C(Nc1ccc(Cl)cc1)c1ccc2oc(=O)n(Cc3ccccc3)c2c1 | – | inconclusive: 6.31 µM [inhibitor, single point]
63 | CCOC(=O)c1cc(-c2ccccc2)sc1NC(=O)C(C)(C)C | inactive: -2.78% | –
64 | Cc1cc2oc(=O)cc(CN3CCCCC3C)c2c(C)c1Cl (configuration not stated) | – | inconclusive: 6.31 µM [inhibitor, single point]
65 | CCOc1ccccc1CNC(=O)C(CC)n1nc(C)c2c(C)n(-c3ccccc3)nc2c1=O (configuration not stated) | – | inconclusive: 0.794 µM [inhibitor, full curve, poor fit]
66 | CCOC(=O)C1CCCN(C(=O)/C=C/c2ccccc2[N+](=O)[O-])C1 (configuration not stated) | inactive: 5.86% | –
67 | Cc1cccc(Nc2ncnc3onc(-c4cccc(Cl)c4)c23)c1 | – | inconclusive: 35.5 µM [inhibitor, partial curve, poor fit]

— PubChem BioAssay AID588855 (National Center for Advancing Translational Sciences (NCATS), 2011)
